In paper PMC4336329 (PLoS ONE, 2015):
The campaign covered roughly 310,000 compounds. About 14,000 (4.5%) showed an effect of 50% or more. The effect is printed as a negative number. The list shows a part of the results.

Biological target: human ether-à-go-go-related gene (hERG) potassium channel (human, UniProt Q12809)
Experiment: primary screen, population patch clamp on CHO cells stably expressing hERG
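Note: peak tail current of the secondary pulse compared with the same well before compound.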

Chain of human ether-à-go-go-related gene (hERG) potassium channel (Q12809 whole entry, looked up): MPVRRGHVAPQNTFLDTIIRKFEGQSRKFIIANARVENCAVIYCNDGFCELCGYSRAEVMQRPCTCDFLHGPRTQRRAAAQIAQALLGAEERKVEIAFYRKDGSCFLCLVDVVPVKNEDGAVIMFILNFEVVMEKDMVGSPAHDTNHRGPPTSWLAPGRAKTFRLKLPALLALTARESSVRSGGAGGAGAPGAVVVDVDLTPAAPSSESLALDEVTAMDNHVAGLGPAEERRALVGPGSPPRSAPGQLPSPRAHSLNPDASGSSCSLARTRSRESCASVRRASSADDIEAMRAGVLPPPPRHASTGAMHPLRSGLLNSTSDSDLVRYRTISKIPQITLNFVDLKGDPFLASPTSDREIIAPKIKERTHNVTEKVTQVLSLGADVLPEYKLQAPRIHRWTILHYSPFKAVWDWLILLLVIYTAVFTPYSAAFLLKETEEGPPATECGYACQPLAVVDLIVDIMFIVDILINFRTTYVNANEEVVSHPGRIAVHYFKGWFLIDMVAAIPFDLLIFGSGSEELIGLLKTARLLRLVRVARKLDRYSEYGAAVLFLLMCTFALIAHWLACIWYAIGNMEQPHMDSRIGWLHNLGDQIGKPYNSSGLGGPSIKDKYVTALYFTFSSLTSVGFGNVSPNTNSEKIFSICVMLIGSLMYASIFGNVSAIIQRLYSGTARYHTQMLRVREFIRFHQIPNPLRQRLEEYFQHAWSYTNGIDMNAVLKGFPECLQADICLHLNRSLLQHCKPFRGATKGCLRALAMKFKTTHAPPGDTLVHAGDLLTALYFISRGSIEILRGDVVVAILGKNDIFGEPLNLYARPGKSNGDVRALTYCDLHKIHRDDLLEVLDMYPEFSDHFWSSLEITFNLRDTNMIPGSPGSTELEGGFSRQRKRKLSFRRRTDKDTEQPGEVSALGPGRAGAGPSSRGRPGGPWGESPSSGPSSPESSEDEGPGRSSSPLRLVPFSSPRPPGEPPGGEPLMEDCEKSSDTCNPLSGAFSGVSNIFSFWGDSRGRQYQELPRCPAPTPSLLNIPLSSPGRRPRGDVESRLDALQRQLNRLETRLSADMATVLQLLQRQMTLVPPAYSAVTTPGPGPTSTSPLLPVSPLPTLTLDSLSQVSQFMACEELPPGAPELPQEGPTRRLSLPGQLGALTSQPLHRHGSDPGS

SMILES | hERG current change (%, negative = inhibition) at 10uM
O=C(O)C1C2C=CC(O2)C1C(=O)Nc1ccc(S(=O)(=O)N2CCc3ccccc32)cc1 (stereo not drawn) | 20.7%
O=C(Nc1ccccc1N1CCOCC1)c1cc(=O)[nH]c2ccccc12 | -3.96%
COc1nccnc1NS(=O)(=O)c1ccc(NC(=S)NC(=O)c2cccnc2)cc1 | 13%
CC(=O)NCC(=O)N(c1c(C)n(C)n(-c2ccccc2)c1=O)C1(C(=O)NC2CCCC2)CCCCC1 | 9.93%
O=c1c(Cc2ccc(Cl)cc2)c(O)ccn1Cc1cccs1 | 4.04%
CC1(C)Cc2c(sc3[nH]c(=S)n(Cc4ccccc4)c(=O)c23)CO1 | 12.6%
Cc1cccn2c(=O)c3cc(C(=O)NC4CCCCC4)c(=N)n(Cc4ccccc4)c3nc12 | -74.6%
O=C(NCCCN1CCc2ccccc2C1)C1CCN(c2nnc(-n3cccc3)s2)CC1 | -55.6%
CCC(=O)N1c2ccccc2NC2=C(C(=O)CCC2)C1c1ccc(N(C)C)cc1 (stereo not drawn) | 9.42%
COc1cc(C)ccc1OCCCCNCc1ccccc1.O=C(O)C(=O)O | -0.752%
O=C(Nc1ccc(OC(F)(F)F)cc1)Oc1ccccc1N1CCCCC1 | 15.8%
COc1ccc(-n2c(C)cc(C(=O)CN3C(=O)c4ccccc4C3=O)c2C)cc1 | 14.1%
COc1ccc(-c2cc(=O)oc3c(C)c(OCC(=O)NCC4CCC(C(=O)O)CC4)ccc23)cc1 (stereo not drawn) | -2.21%
CC(=O)c1ccc(OC(NC(=O)Cc2ccccc2)C(Cl)(Cl)Cl)cc1 (stereo not drawn) | -11.6%
N#CC1C=Cc2ccccc2N1C(=O)c1ccccc1 (stereo not drawn) | 6.84%
CCOc1ccccc1N1CCN(S(=O)(=O)CC)CC1 | 11.8%
O=C(/C=C/Nc1ccccc1C(F)(F)F)c1ccco1 | -5.06%
Cc1ccc(NC(=O)CN2CCC(NC(=O)Cc3ccccc3)CC2)cc1C | -12.8%
CCc1ccccc1NCC(=O)Nc1ccccc1C(=O)OC | 1.49%
O=C(CNC(=O)c1ccccn1)N/N=C/c1ccccc1 | 4.84%
Nc1n[nH]c(N)c1N=Nc1ccccc1 | 16.7%
COc1cccc(NC(=O)Nc2ccc(C)c(Cl)c2)c1 | 5.82%

SMILES | hERG current change (%, negative = inhibition) at 10uM
O=C(NCc1nc2ccccc2[nH]1)C1=C[C@H](C2CC2)C[C@H](OCc2ccc(CO)cc2)O1 | -2.57%
COC(=O)C1=C(c2ccc(OC(F)(F)F)cc2)C[C@@H]2CC[C@H]1N2C(=O)NCc1cc(C)oc1C(F)(F)F | 14.7%
COc1ccc(N(C(=O)c2ccco2)C(C(=O)NC2CCCC2)c2cccnc2)c(OC)c1 (stereo not drawn) | -0.565%
COc1ccc(C(C)(C)C)cc1NC(=O)c1[nH]c(C)c(C(C)=O)c1C | -9.84%
COc1ccc(C(=O)O)cc1NC(=S)NC(=O)CSc1ccc(Cl)cc1 | 3.78%
CC(=O)Nc1nnc(SCc2ccccc2F)s1 | 17.1%
CCc1nnc(NC(=O)CSc2nc3c(c(=O)n2C)SC(C)C3)s1 (stereo not drawn) | -2.54%
COc1cccc(C2CC(c3ccccc3OC)n3ncnc3N2)c1 (stereo not drawn) | -9.51%
Cc1ccc2c([N+](=O)[O-])c(C)ccc2n1 | 8.15%
C=CCNC(=O)CNS(=O)(=O)c1ccc(F)cc1 | 4.33%
CCOC(=O)C(C)NC(=O)C(NC(=O)C1CCC(CC)CC1)C(C)C (stereo not drawn) | -2.49%
COc1ccc(OCCSc2nc3nc(C)cc(C)n3n2)cc1 | -13.1%
Nc1ncnc2c1ncn2CCN1CCCCC1 | -9.9%
Nc1nccc(-c2nn(-c3ccc(Cl)cc3)ccc2=O)n1 | 19.4%
Cc1ccccc1C(=O)NC(C)c1ccc2c(c1)CCCC2 (stereo not drawn) | -5.29%
O=C(O)COc1ccc(=O)n(-c2ccccc2)n1 | 8.54%
Fc1ccc(Oc2nccc(-c3ccc(Cl)cc3)n2)cc1 | 1.89%
O=C(c1cncc(Br)c1)N1CCN(c2ccc([N+](=O)[O-])cc2)CC1 | -77%
CC(=O)OCC(=O)NCCCOc1cccc(CN2CCCCC2)c1.Cl | -2.29%
Cc1sc2c(c1C)C(c1cccs1)=NCC(=O)N2CC(=O)NCc1cccs1 | -56.2%
O=C(CCCn1cc([N+](=O)[O-])cn1)NCc1ccccc1 | -5.64%
CC(=O)Nc1ccc(N(C(=O)c2cnccn2)C(C(=O)NC2CCCCC2)c2ccc(F)cc2)cc1 (stereo not drawn) | 0.645%

SMILES | hERG current change (%, negative = inhibition) at 10uM
COc1ccc(OC)c(-c2csc(NC(=O)Cn3[nH]c(=O)c4ccccc4c3=O)n2)c1 | 1.19%
O=C(c1cccnc1)N1c2ccccc2Sc2ccccc21 | -18.1%
CCOC(=O)Cc1csc(NC(=O)c2cc(C)c(C)s2)n1 | -8.58%
COc1ccc(Cl)cc1NC1=NCC(C)S1 (stereo not drawn) | -7.11%
CS(=O)(=O)Oc1ccc2c(c1)O/C(=C\C=C\c1ccccc1)C2=O | 8.05%
CC1CCc2nn(CC(=O)Nc3c(F)cc(F)cc3Br)cc2C1 (stereo not drawn) | 3.49%
CCOC(=O)C1=C(N)Oc2cc(C)oc(=O)c2C12C(=O)N1c3c(cccc32)C(C)=CC1(C)C (stereo not drawn) | -13.6%
CCN(CC)S(=O)(=O)c1cccc(C(=O)OCC(=O)Nc2ccc3c(c2)c2ccccc2n3CC)c1 | 4.01%
CCOC(=O)Cc1csc(NC(=S)NC(=O)c2ccccc2)n1 | 16.1%
N#Cc1ccc(C(c2nnnn2CCc2ccccc2)N2CCCCCC2)cc1 (stereo not drawn) | -26.3%
O=C(CCNC(=O)c1ccccc1)OCC(=O)c1cccc(Cl)c1 | 3.67%
COc1ccc(/C=N/NC(=O)CCC(=O)Nc2ccccc2)cc1OC | -3.99%
O=C(c1ccc(Br)o1)N1CCN(c2ccc3nnc(-c4ccc(F)cc4)n3n2)CC1 | -46.4%
O=C(OCc1nnc(-c2ccc(Cl)cc2)o1)c1ccncc1 | 3.07%
Cc1cc2nc(CCl)cc(=O)n2[nH]1 | 17.4%
Cc1cc(C)n2nc(C(=O)N/N=C/c3c4ccccc4cc4ccccc34)nc2n1 | -15.8%
Cc1[nH]c(C)c(S(=O)(=O)Nc2cccc(Cl)c2C)c1C(=O)N1CCCCC1 | -11.3%
O=c1cc(-c2ccccc2Cl)oc2c(Br)ccc(O)c12 | 9.75%
CCOc1ccc2cc(S(=O)(=O)N3CCCCC3)ccc2c1 | 22%
O=C(c1cccs1)N1CCc2c([nH]c3ccccc23)C1c1ccccn1 (stereo not drawn) | -35.2%
COc1cc([N+](=O)[O-])ccc1NC(=O)/C=C\C(=O)O | 7.85%
Cc1ccccc1-n1c(SCC(=O)N2CCN(c3ccccc3)CC2)nnc1-c1ccncc1 | -38.2%

SMILES | hERG current change (%, negative = inhibition) at 10uM
COc1ccc(CCNC(=O)c2ccccc2NC(=O)C2=C(C)OCCS2)cc1OC | 19.4%
CC1CCc2sc(C(=O)OCC(=O)NC(N)=O)cc2C1 (stereo not drawn) | 22%
CC(C)C(c1nnnn1Cc1ccccc1)N1CCc2ccccc2C1 (stereo not drawn) | -1.4%
CCN1CCN(CCNC(=O)c2ccc(CS(=O)(=O)c3ccccc3C)o2)CC1 | -1.23%
COc1ccc(S(=O)(=O)NC(C)C(=O)O)cc1 (stereo not drawn) | 1.62%
COc1cc(C(F)(F)F)nc2c(Br)c(C(C)(C)C)nn12 | 9.62%
COc1ccc(NC(=O)CSc2nnnn2-c2ccc(OC)cc2)cc1 | 18.4%
COc1ccc(N(C(=O)CSCC(=O)Nc2cc(C)on2)C(C(=O)NC2CCCCC2)c2ccc(O)c(O)c2)cc1 (stereo not drawn) | 12.1%
Nc1ccccc1-c1nnc(SCc2ccccc2Cl)[nH]c1=O | -0.313%
CC1CN(C(=O)C2CCCN2S(=O)(=O)c2ccc(Cl)cc2)CC(C)O1 (stereo not drawn) | 0.336%
O=C(C[n+]1ccc(-c2ccccc2)cc1)Nc1ccc([N+](=O)[O-])cc1.[Br-] | -24.2%
CC1(CCc2ccccc2)NC(=S)N(c2ccc(Cl)cc2)N1 (stereo not drawn) | 12.7%
COc1ccc(C2(C)NC(=O)N(CC(=O)NC3(C#N)CCCCC3)C2=O)cc1 (stereo not drawn) | 14.3%
COc1cc(C(=O)OCC(=O)N2CCC(C)CC2)cc2c1OCCO2 | 0.559%
Cc1cccc2sc(NNC(=O)c3ccc(S(=O)(=O)N4CC(C)CC(C)C4)cc3)nc12 (stereo not drawn) | 5.29%
CCc1cc(C(=O)NCC2CCCO2)sc1C (stereo not drawn) | 19.5%
CCN(CC)CCCN1C=C2C(=O)C(C)(OC(=O)C3CCCC3)C(=O)C(c3ccccc3)=C2C=C1CCCC(=O)OC (stereo not drawn) | -16.7%
CC1(c2nnc(-c3ccc(Cl)cc3)o2)CC(c2ccncc2)=NO1 (stereo not drawn) | -30.9%
CCCCN(C)C(=O)c1ccc2c(c1)N(CC)C(=O)c1ccccc1S2=O (stereo not drawn) | 1.34%
CSCCOC(=O)c1[nH]c2c(c1C)C(=O)CC(c1ccco1)C2 (stereo not drawn) | -1.18%
CCOc1ccc(C(=O)NCC(C)CN(C)C)cc1OCC (stereo not drawn) | -34.5%
